Experimental data published in PubChem BioAssay AID463173 (ICCB-Longwood Screening Facility, Harvard Medical School, 2010).
Hit rate of the full screen: of about 52,000 compounds, about 4,300 (8.3%) were called active. No stated cut-off is given here; in the data, active means survival mostly below about 52% (no sharp cut-off); inactive means mostly above about 56%. The list shows a part of the results.

system: DeltatarO mutant; test: growth inhibition of S. aureus wild type versus tarO mutant, primary screen, teichoic acid synthesis inhibitors, RN4220, OD600 (AID 463173); settings: OD600, 18 h, stronger effect = lower value, screened at 18.75 µg/mL (by protocol)

SMILES | survival
Cc1cccc(S(=O)(=O)c2cn(Cc3ccccc3)c3cc(N4CCCCC4C)c(F)cc3c2=O)c1 (stereo not given) | inactive: 79%
Cc1cc(C(F)F)n2nc(C(=O)Nc3ccc(F)c(Cl)c3)nc2n1 | inactive: 78%
CCc1nc2ccc(C(=O)N3CCN(c4ccc(Cl)cc4)CC3)cc2nc1CC | inactive: 99%
Cc1ccc(Cl)cc1N1CCN(C(=O)c2ccc(C)c(-n3c(C)nc4cccnc43)c2)CC1 | inactive: 113%
COc1ccc2c(C)c(CCC(=O)NCCc3ccc(Cl)cc3)c(=O)oc2c1 | inactive: 52%
CCc1ccc(-c2nn(CC(=O)NC3CCCCC3)c3c2cnc2ccc(OC)cc23)cc1 | inactive: 98%
COc1ccc(CC(=O)Nc2sc3c(c2C(=O)Nc2c(C)cccc2C)CCCCC3)cc1 | active: 47%
COc1cccc(NC(=O)/C(C#N)=C\c2cn(Cc3ccc(Cl)cc3)c3ccccc23)c1 | inactive: 77%
COC(=O)Cc1ccc2c3ccccc3n(C)c2c1 | inactive: 100%
COc1cc(C2CC(=O)Nc3c2c(=O)nc2c(C)cccn32)cc(OC)c1OC (stereo not given) | inactive: 56%
Cc1ccc(NC(=O)C(Cc2ccccc2)NS(=O)(=O)c2cccc3nsnc23)c(C)c1 (stereo not given) | inactive: 125%
CCS(=O)(=O)N1CCN(C(=O)c2ccc(OC)cc2)CC1 | inactive: 102%
NNC(=O)CNC(=O)c1cccs1 | inactive: 79%
CCOc1ccc(C(=O)N(CC#N)CC#N)cc1 | inactive: 79%
COc1cccc(Nc2nc(-c3ccccc3)c3cc(C)ccc3n2)c1 | active: 12%
Cc1cccc(CNC(=O)c2ccc(Cn3c(=O)c4cccn4c4cccnc43)cc2)c1 | active: 48%
O=C(CC1N=C2c3ccccc3N=C(SCc3ccccc3F)N2C1=O)NCc1cccs1 (stereo not given) | inactive: 101%
CCn1c(=O)n(CC)c2cc(N3CCCCC3)c(NC(=O)Nc3cc(Cl)ccc3OC)cc21 | inactive: 81%
CC(C)C(=O)Nc1ccc2nc(SCCOc3ccccc3)sc2c1 | inactive: 94%
CCOC(=O)c1c(C)[nH]c(CCC(=O)Nc2ccccc2C(=O)OC)c1C | inactive: 94%
C=CCNC(=O)c1cccc(Br)c1 | inactive: 72%
COc1ccc(-n2c(-c3ccco3)nc3c(cnn3-c3ccc(C)cc3)c2=O)cc1 | inactive: 73%
Cc1ccc(N2CCN(C(=O)c3cn(C)c4ccc(S(=O)(=O)N(C)C5CCCCC5)cc4c3=O)CC2C)cc1 (stereo not given) | inactive: 91%

SMILES | survival
COc1ccc(CCNC(=O)CCS(=O)(=O)c2ccc3c(c2)oc(=O)n3C)cc1OC | inactive: 99%
Cc1nn2c(-c3cccc(NC(=O)c4ccc(Cl)cc4)c3)nnc2c2ccccc12 | inactive: 116%
CCN1CCC(N(Cc2ccc3c(c2)OCO3)C(=O)Nc2ccc(Br)c(C)c2)CC1 | inactive: 100%
CCS(=O)(=O)N1CCc2cc(C(=O)Nc3cc(Cl)ccc3C)ccc21 | inactive: 72%
O=C(c1ccc2c(=O)n(CCc3ccccc3)c(=O)[nH]c2c1)N1CCN(c2ccc(Cl)cc2)CC1 | inactive: 65%
CCn1c(C)c(C)c2cc(C(=O)NCCc3ccc(C)cc3)ccc21 | inactive: 85%
CCOC(=O)/C(C)=C1\NC(C)(C)Cc2ccccc21 | inactive: 92%
CCOc1ccc(C(=O)N2CCN(Cc3cc(=O)n4nc(-c5ccccc5Cl)sc4n3)CC2)cc1 | inactive: 85%
O=C(Nc1ccc2nn(-c3ccccc3)nc2c1)c1ccc(-c2cccc(Cl)c2)o1 | inactive: 105%
CCOc1ccc(NS(=O)(=O)c2ccc(NC(=O)N3CCCC3)cc2)cc1 | inactive: 101%
O=C(c1cccs1)N1CCCc2cc(NS(=O)(=O)c3ccc(F)cc3)ccc21 | inactive: 135%
CC(C)Cn1c(/C=C/c2ccc(F)cc2)nc2ccccc21 | active: -4%
COCCCNC(=O)CCc1c(C)nc2cc(-c3ccc(Cl)cc3)nn2c1C | inactive: 110%
COc1ccccc1NC(=O)C1=C(C)Nc2nc(SCc3cc(C)ccc3C)nn2C1c1ccccc1 (stereo not given) | inactive: 116%
OC1N(CN2CCN(c3ccccc3F)CC2)c2ccccc2C12OCCCO2 (stereo not given) | inactive: 99%
CC(=O)N1CCc2cc(CNC(=O)Nc3ccccc3C(F)(F)F)ccc21 | inactive: 78%
Cc1cccc(Cn2nnc3c(=O)[nH]c(C4CCCN(C(=O)c5ccc(C(C)(C)C)cc5)C4)nc32)c1 (stereo not given) | active: 18%
CCCN1CCCc2cc(CN(CCCN3CCOCC3)C(=O)Nc3ccc(OCC)cc3)ccc21 | inactive: 72%
COc1ccc2c(CNC3CCC(C)CC3)c(C(=O)O)n(Cc3ccccc3)c2c1 (stereo not given) | inactive: 74%
COc1ccccc1C(=O)NCCc1csc(-c2ccc(C(F)(F)F)cc2)n1 | inactive: 126%
CCc1ccc(C2CC(=O)N(c3cccc(C(F)(F)F)c3)C3=C2C(=O)OC3)cc1 (stereo not given) | active: 57%
CCOCCc1nn2c(=O)cc(COC(=O)c3ccc(NC(=O)c4ccc(F)cc4)cc3)nc2s1 | active: 32%
Cc1ccc(C)c(NC2=C(c3ccc(C(F)(F)F)cc3)C(=O)c3ccccc32)c1 | inactive: 65%

SMILES | survival
O=C(NCc1ccc2c(c1)OCO2)c1cccnc1 | inactive: 103%
O=C(COCc1cc(-c2ccc3c(c2)OCO3)on1)N1CCN(c2cccc(C(F)(F)F)c2)CC1 | inactive: 92%
O=C(Nc1ccc2[nH]ncc2c1)/C(=C/c1ccco1)NC(=O)c1ccccc1 | inactive: 86%
CCCS(=O)(=O)c1nc(S(=O)(=O)c2ccc(C)cc2)c(NC(C)c2ccccc2)s1 (stereo not given) | inactive: 117%
CN1C(C(=O)NC(C)(C)C)=CC(c2ccc3c(c2)OCO3)=NS1(=O)=O | inactive: 86%
COc1cccc(NS(=O)(=O)c2ccc3[nH]cc(C(=O)NCCc4ccc(C)cc4)c(=O)c3c2)c1 | inactive: 102%
Cc1cc(C)c2oc(C(=O)Nc3nc4ccc(Cl)cc4s3)cc(=O)c2c1 | inactive: 61%
Cc1ccc(-n2ccnc(NCc3cccs3)c2=O)cc1C | inactive: 126%
Cc1cccc(Cn2c(SCc3ccc(C(=O)NCc4ccccc4F)cc3)nc3cccnc32)c1 | inactive: 98%
CCOc1ccccc1CNC(=O)C1CCN(Cc2cc3ccccc3n2Cc2ccccc2)CC1 | inactive: 86%
Cc1ccc(-c2cn3nc(N4CCC(C(=O)Nc5ccccc5C)CC4)sc3n2)cc1 | inactive: 80%
CC(C(=O)NCc1ccco1)N(C(=O)c1ccc(Cl)nc1)C1CCCCC1 (stereo not given) | inactive: 116%
Cc1ccc2oc(C(=O)Nc3ccc(S(=O)(=O)Nc4ncccn4)cc3)cc(=O)c2c1 | inactive: 70%
NCC(O)CN1CCN(Cc2ccccc2)CC1 (stereo not given) | inactive: 92%
c1ccc2c(c1)nc1n2CCN1CCNC1CCCCC1 | inactive: 104%
CCNC(=S)NCc1ccc2c(c1)OCO2 | inactive: 85%
CCC(C(=O)Nc1cc(OC)ccc1OC)n1nc(-c2ccccc2)c2c(c1=O)CCCC2 (stereo not given) | active: 35%
CN(C)S(=O)(=O)N(CC(=O)NCCSc1ccc(Cl)cc1)c1ccccc1 | inactive: 50%
Cc1ccc(-n2ncc(C(=O)N3CCN(c4cccc(C)c4C)CC3)c2C2CCNCC2)c(C)c1 | inactive: 83%
CCOC(=O)c1cc(-c2ccc(F)cc2)n(CCC(=O)NCc2ccc(C)cc2)c1C | inactive: 77%
COc1ccc(Br)cc1CC1C(=O)Nc2ccccc21 (stereo not given) | inactive: 62%
O=C(COc1ccccc1F)Nc1ccc2nc(SCc3ccccc3)sc2c1 | inactive: 83%
CCC(=O)N1CCc2cc(S(=O)(=O)NCCC(=O)Nc3cccc(SC)c3)ccc21 | inactive: 85%

SMILES | survival
COc1ccc2oc(=O)c(-c3nc4ccc(C)cc4[nH]3)cc2c1 | inactive: 107%
Cc1ccc(NC(c2cccc(Cl)c2)c2nnc(-c3ccccc3)o2)cc1F (stereo not given) | inactive: 99%
CCOC(=O)C1CCN(C(=O)Cn2nc(CC)n3c(cc4occc43)c2=O)CC1 | inactive: 92%
CCCCc1nn2c(C)c(-c3ccc(OCC)cc3)nc2s1 | inactive: 103%
Cc1cc(Cl)ccc1NS(=O)(=O)c1cc2[nH]c(=O)c(=O)[nH]c2cc1C | inactive: 93%
COc1ccc(-c2nc(N)n(C(C)=O)n2)cc1 | inactive: 105%
Cc1ccc(-n2c(=O)[nH]c3sc4c(c3c2=O)CCNC4)cc1C | inactive: 84%
O=C(Cn1ncc2c3ccccc3n(Cc3cccc(Cl)c3)c2c1=O)N1CCCCC1 | inactive: 75%
COc1ccc(CN2C(=O)c3ccccc3C2C(=O)NC2CCCCCC2)c(OC)c1 (stereo not given) | inactive: 79%
CN(C(=O)NCc1noc2ccccc12)c1cccc(Cl)c1 | inactive: 58%
COc1ccccc1NC(=O)C1=C(C)Nc2nc(SCc3ccccc3Cl)nn2C1c1cccnc1 (stereo not given) | inactive: 189%
Cc1ccc2c(c1)sc1nc(=O)n(-c3cccc(Cl)c3)c(=O)n12 | inactive: 85%
CCCN1C(C(=O)c2ccccc2)=C(OC(=O)C(C)(C)C)c2ccccc2S1(=O)=O | inactive: 53%
Cc1ccc(NC(=O)CN2CCN(C3CCCCC3)C(=O)C2=O)cc1C | inactive: 89%
CCOC(=O)CSc1nc2cc3c(cc2c(=O)n1CCCCCC(=O)NCc1ccc2c(c1)OCO2)OCO3 | inactive: 70%
CCCCN(C)C(=O)c1ccc2c(c1)N(Cc1cccc(Cl)c1)C(=O)c1ccccc1S2=O (stereo not given) | inactive: 99%
Cc1cc(C)cc(NC(=O)N2CCN(C)c3ncccc32)c1 | inactive: 79%
Cc1ccc2c(CC(=O)Nc3ccc(S(=O)(=O)Nc4nc(C)cc(C)n4)cc3)coc2c1 | inactive: 61%
COc1cc(C2Nc3ccccc3-c3nnc(SCc4ccc(Cl)cc4)nc3O2)ccc1OCC(=O)O (stereo not given) | inactive: 74%
CCc1cccc(C)c1NC(=O)C(CC)Sc1nc2ccncc2[nH]1 (stereo not given) | inactive: 124%
CCCCc1nn2c(=O)cc(COC(=O)c3ccc(NC(=O)c4cccc(OC)c4)cc3)nc2s1 | inactive: 102%
